# Assay results published in the supplement of paper PMC4967469.
# pIC50: −log10 of the molar value. A lower IC50 marks a more sensitive line; a fit beyond the top or the lowest dose is shown as a bound at that dose. AUC sums up the same curve from the lowest dose to the 256-fold higher top dose: 1 means no effect, lower means more sensitive. An inferred top dose comes from the curve model; the source does not state it. For some of these results: Where an entry number is given, a second screen of the drug exists; the two often differ.
# How the values were obtained:
# Assay in all cases: Viability of human cancer cell lines after 72 h of drug (GDSC screen)
# AZD6482 = compound: Cc1cc([C@@H](C)Nc2ccccc2C(=O)O)c2nc(N3CCOCC3)cc(=O)n2c1 [AZD6482]
# Experimental: (§1)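 Human cancer cell lines in 384-well plates, medium with 10% serum, drug for 72 h over a 256-fold dose range (nine 2-fold or five 4-fold steps up to the top dose). Adherent lines were fixed and stained with the nucleic acid dye Syto60, suspension lines read with resazurin; signal relative to control wells, capped at 0 and 100%. One two-parameter sigmoid per drug and line, fitted in a mixed model over all curves with the slope shared within a line.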
# BMN-673 = compound: Cn1ncnc1[C@H]1c2n[nH]c(=O)c3cc(F)cc(c23)N[C@@H]1c1ccc(F)cc1 [BMN-673]; details: top dose 10 µM; top dose inferred
# Experimental: as §1
# MLN4924 = compound: NS(=O)(=O)OC[C@@H]1C[C@@H](n2ccc3c(N[C@H]4CCc5ccccc54)ncnc32)C[C@@H]1O [MLN4924]; details: top dose 1 µM; top dose inferred
# Experimental: as §1
# [1] = top dose 5 µM, screen: GDSC drug entry 1066, top dose inferred
# [2] = top dose 5.12 µM, screen: GDSC drug entry 156
Cell Line,AUC (AZD6482; [1]),pIC50 (AZD6482; [1]),AUC (AZD6482; [2]),pIC50 (AZD6482; [2]),AUC (BMN-673),pIC50 (BMN-673),AUC (MLN4924),pIC50 (MLN4924)
"P31-FUJ (acute myeloid leukaemia, suspension)",0.994,< 5.30,0.996,< 5.29,0.996,< 5.00,0.862,6.26
"A172 (glioma, adherent)",0.911,< 5.30,0.949,< 5.29,0.735,5.55,0.639,6.83
"NCI-H2405 (lung adenocarcinoma, adherent)",0.9,< 5.30,0.955,< 5.29,0.773,5.37,0.951,< 6.00
"EFO-21 (ovary, adherent)",0.872,< 5.30,0.821,5.31,0.933,< 5.00,0.947,< 6.00
"JHH-4 (liver, adherent)",0.831,5.50,0.864,5.35,0.903,< 5.00,0.868,6.04
"C-33-A (cervix, adherent)",0.967,< 5.30,0.976,< 5.29,0.476,6.27,0.657,6.77
"DJM-1 (skin, adherent)",0.983,< 5.30,0.977,< 5.29,0.807,5.29,0.743,6.51
"JHH-2 (liver, adherent)",0.517,6.46,0.964,< 5.29,0.89,< 5.00,0.926,< 6.00
"EBC-1 (lung squamous cell carcinoma, adherent)",0.823,5.46,0.867,< 5.29,0.84,5.09,0.692,6.63
"SW954 (urogenital system, adherent)",0.974,< 5.30,0.828,5.49,0.528,6.13,0.717,6.59
"Hs746T (stomach, adherent)",0.932,< 5.30,0.937,< 5.29,0.863,< 5.00,0.957,< 6.00
"TCCSUP (bladder, adherent)",0.912,< 5.30,0.833,5.40,0.911,< 5.00,0.961,< 6.00
"MHH-CALL-2 (B-cell leukaemia, suspension)",0.987,< 5.30,,,0.997,< 5.00,0.991,< 6.00
"SW1990 (pancreas, adherent)",0.977,< 5.30,0.983,< 5.29,0.873,< 5.00,0.773,6.34
"HAL-01 (lymphoblastic leukaemia, suspension)",0.547,6.38,0.723,5.90,0.383,6.51,0.988,< 6.00
"NCI-H211 (small cell lung carcinoma, adherent)",0.986,< 5.30,0.959,< 5.29,0.871,5.05,0.968,< 6.00
"CCF-STTG1 (glioma, adherent)",0.956,< 5.30,0.673,6.01,0.773,5.41,0.981,< 6.00
"KARPAS-45 (lymphoblastic leukaemia, suspension)",0.712,5.96,0.834,5.59,0.991,< 5.00,0.969,< 6.00
"MOLM-16 (acute myeloid leukaemia, suspension)",0.547,6.38,,,0.921,< 5.00,0.946,< 6.00
"CCRF-CEM (lymphoblastic leukaemia, suspension)",0.903,5.32,0.845,5.55,0.621,5.90,0.781,6.46
"NCI-H1299 (large cell lung carcinoma, adherent)",0.95,< 5.30,0.762,5.65,0.949,< 5.00,0.864,< 6.00

Cell Line,AUC (AZD6482; [1]),pIC50 (AZD6482; [1]),AUC (AZD6482; [2]),pIC50 (AZD6482; [2]),AUC (BMN-673),pIC50 (BMN-673),AUC (MLN4924),pIC50 (MLN4924)
"BFTC-909 (kidney, adherent)",0.925,< 5.30,0.885,< 5.29,0.689,5.68,0.835,6.20
"CA46 (Burkitt lymphoma, suspension)",0.985,< 5.30,0.853,5.35,0.95,< 5.00,0.885,< 6.00
"HCC-44 (lung adenocarcinoma, adherent)",0.666,6.05,0.935,< 5.29,0.504,6.19,0.542,7.09
"IGR-37 (melanoma, adherent)",0.83,5.56,0.792,5.68,0.789,5.40,0.85,6.18
"SBC-5 (small cell lung carcinoma, adherent)",0.928,< 5.30,0.917,< 5.29,0.674,5.76,0.824,6.34
"KS-1 (glioma, adherent)",0.868,< 5.30,0.847,< 5.29,0.877,< 5.00,0.675,6.66
"LS-411N (large intestine, adherent)",0.912,< 5.30,0.918,< 5.29,0.886,< 5.00,0.915,< 6.00
"NCI-H1573 (lung adenocarcinoma, adherent)",0.978,< 5.30,0.991,< 5.29,0.966,< 5.00,0.924,< 6.00
"NCI-H2444 (non-small cell lung carcinoma, adherent)",0.975,< 5.30,0.946,< 5.29,0.98,< 5.00,0.984,< 6.00
"MS751 (cervix, adherent)",0.977,< 5.30,0.987,< 5.29,0.776,5.43,0.658,6.78
"HPAF-II (pancreas, adherent)",0.894,< 5.30,0.946,< 5.29,0.905,< 5.00,0.929,< 6.00
"SNU-398 (liver, adherent)",0.985,< 5.30,0.884,< 5.29,0.928,< 5.00,0.939,< 6.00
"SU-DHL-4 (B-cell lymphoma, suspension)",0.971,< 5.30,0.853,5.62,0.997,< 5.00,0.98,< 6.00
"LU-135 (small cell lung carcinoma, suspension)",0.975,< 5.30,0.972,< 5.29,0.974,< 5.00,0.984,< 6.00
"GCT (soft tissue, adherent)",0.893,< 5.30,0.95,< 5.29,0.665,5.76,0.468,7.29
"AN3-CA (endometrium, adherent)",,,0.84,5.40,0.936,< 5.00,0.862,6.00
"Ca9-22 (head and neck, adherent)",0.892,< 5.30,0.983,< 5.29,0.881,5.04,0.799,6.36
"A3-KAW (B-cell lymphoma, suspension)",0.993,< 5.30,0.973,< 5.29,0.718,5.65,0.713,6.67
"COLO-680N (oesophagus, adherent)",0.955,< 5.30,0.883,< 5.29,0.949,< 5.00,0.964,< 6.00
"LU-165 (small cell lung carcinoma, suspension)",0.988,< 5.30,0.954,< 5.29,0.974,< 5.00,0.987,< 6.00
"KM-H2 (Hodgkin lymphoma, suspension)",0.975,< 5.30,0.973,< 5.29,0.986,< 5.00,0.986,< 6.00

Cell Line,AUC (AZD6482; [1]),pIC50 (AZD6482; [1]),AUC (AZD6482; [2]),pIC50 (AZD6482; [2]),AUC (BMN-673),pIC50 (BMN-673),AUC (MLN4924),pIC50 (MLN4924)
"COR-L321 (lung, suspension)",0.982,< 5.30,,,0.979,< 5.00,0.916,< 6.00
"JHH-6 (liver, adherent)",0.869,5.33,0.919,< 5.29,0.839,5.16,0.847,6.12
"KYSE-180 (oesophagus, adherent)",0.988,< 5.30,0.965,< 5.29,0.895,< 5.00,0.944,< 6.00
"UM-UC-3 (bladder, adherent)",0.883,5.32,0.882,5.31,0.723,5.59,0.575,7.00
"MHH-PREB-1 (B-cell leukaemia, suspension)",0.817,5.61,0.9,< 5.29,0.903,< 5.00,0.847,6.21
"CFPAC-1 (pancreas, adherent)",0.917,< 5.30,0.769,5.65,0.785,5.31,0.865,< 6.00
"CAL-72 (osteosarcoma, adherent)",0.958,< 5.30,0.92,< 5.29,0.891,< 5.00,0.837,6.07
"REH (B-cell leukaemia, suspension)",0.849,5.45,0.835,5.50,0.665,5.75,0.908,< 6.00
"LC4-1 (lymphoblastic leukaemia, suspension)",0.984,< 5.30,0.81,5.52,0.689,5.65,0.909,< 6.00
"TC-YIK (cervix, suspension)",0.974,< 5.30,,,0.502,6.20,0.923,< 6.00
"JHOS-4 (ovary, adherent)",0.945,< 5.30,,,0.814,5.05,0.973,< 6.00
"OAW-28 (ovary, adherent)",0.824,5.39,0.796,5.50,0.77,5.32,0.978,< 6.00
"ROS-50 (B-cell leukaemia, suspension)",0.96,< 5.30,0.965,< 5.29,0.982,< 5.00,0.974,< 6.00
"H3255 (lung adenocarcinoma, adherent)",0.923,< 5.30,0.959,< 5.29,0.885,< 5.00,0.926,< 6.00
"H4 (glioma, adherent)",0.567,6.32,0.847,5.43,0.376,6.55,0.68,6.70
"GAMG (glioma, adherent)",0.665,6.04,0.798,5.59,0.93,< 5.00,0.798,6.30
"CMK (acute myeloid leukaemia, suspension)",0.958,< 5.30,0.873,5.44,0.67,5.77,0.81,6.37
"KARPAS-299 (anaplastic large cell lymphoma, suspension)",0.964,< 5.30,0.992,< 5.29,0.811,5.37,0.961,< 6.00
"HSC-3 (head and neck, adherent)",0.947,< 5.30,0.99,< 5.29,0.738,5.58,0.792,6.42
"OE33 (oesophagus, adherent)",0.894,< 5.30,0.83,5.39,0.881,< 5.00,0.945,< 6.00
